Experimental data published in ChEMBL document CHEMBL4888484, “Replenishing the malaria drug discovery pipeline: Screening and hit evaluation of the MMV Hit Generation Library 1 (HGL1) against asexual blood stage Plasmodium falciparum ,using a nano luciferase reporter read-out” (2022).
Among all 150,000 compounds or so, about 540 (0.36%) showed an effect of 50% or more. The list shows a part of the results.

What follows are molecules tested on Plasmodium falciparum (assay: Primary screen in NF54 nanoGlo assay, in single point, at 2uM, 72h; a lower Z score goes with more inhibition). Conditions: timepoint 72 hour.
Type: functional, Erythrocyte

| Compound | % Inhibition | Z score |
| --- | --- | --- |
| Cc1cc(=O)c(C(=O)N2CCN(CC(C)C)CC2)c[nH]1 | -7% | 0.63 |
| COc1ccccc1CCNC(=O)C(C)C | -17% | 1.53 |
| N#Cc1c(NC(=O)[C@H]2CCS(=O)(=O)C2)sc2c1CCCCC2 | -10% | 1.93 |
| CCn1ccc(C(=O)N2CCC3(CC2)CC(=O)N(CCCc2ccccc2)C3)n1 | 3% | -0.63 |
| COc1ccnc(CN2CCC(CNC(=O)c3cnccn3)CC2)c1OC | -5% | 0.69 |
| CCOC(=O)C1(O)CCN(c2ccc3nc(C)nn3n2)CC1 | 0% | 0.05 |
| CCc1nc(CN(C)Cc2cnc3ccccc3c2)n[nH]1 | 0% | -0.05 |
| Cc1nc(-c2cccs2)sc1CNC(=O)Cc1cccs1 | -3% | 0.62 |
| CCS(=O)(=O)c1ccc(Cl)c(C(=O)Nc2c(C)noc2C2CC2)c1 | 6% | -0.86 |
| COc1cc(OC)cc([C@@H](NC(=O)CCNS(=O)(=O)c2ccc(C)c(C)c2)c2nccn2C)c1 | 2% | -0.29 |
| O=C(Nc1ccccc1)C1CCN(C(=O)c2sc3ccccc3c2Cl)CC1 | -8% | 1.19 |
| NC[C@H]1Cc2c(F)ccc(-c3ccc(-c4nc5ccccc5[nH]4)o3)c2O1 | -14% | 2.32 |
| CN(C)c1nc(N2CCN(c3ccccc3F)CC2)nc2c1CN(C(=O)c1cccc(F)c1)CC2 | -5% | 0.66 |
| CCC#CCN1CCOc2c(O)cc(-c3nc(C)cnc3C)cc2C1 | 7% | -0.88 |
| COCC(=O)NC1(CO)CCN(C(=O)OC(C)(C)C)CC1 | 20% | -2.49 |
| Cc1csc([C@@H](C)CNC(=O)CCc2cnccn2)n1 | 7% | -0.95 |
| Cc1nc(-c2csc(S(=O)(=O)N3CCC[C@H](C(=O)NCc4ccccc4C)C3)c2)no1 | -12% | 1.32 |
| O=C(NCCc1cn2c(n1)CCCC2)C1CCCCC1 | -1% | 0.2 |
| COc1cccc(-c2ccc(CN3CCN(C)CC3)cn2)c1F | -21% | 2.3 |
| Cc1noc(C)c1S(=O)(=O)N1CCOC[C@H](Oc2ccc(C(F)(F)F)cn2)C1 | -7% | 1.13 |
| CC(C)c1cc(C(=O)N2CC[C@@H](CO)[C@@H](O)C2)cs1 | 6% | -0.72 |

| Compound | % Inhibition | Z score |
| --- | --- | --- |
| Cc1nc(-c2c(C)c(C)nn(C)c2=O)sc1C(=O)NC[C@H](C)N1CCc2ccccc21 | 31% | -3.46 |
| O=S1(=O)C[C@@H]2[C@H](C1)N(S(=O)(=O)Cc1ccccc1)CCN2CC1CC1 | -8% | 1.45 |
| CCn1cc([C@H](CC(=O)NCc2ccco2)c2ccc(Cl)cc2)c2ccccc21 | -3% | 0.35 |
| C=CCN(CC=C)S(=O)(=O)c1ccc(Cl)cc1 | 34% | -3.89 |
| CN(Cc1ccc(Cl)s1)C(=O)CN1CCOCC1 | 2% | -0.21 |
| COC(=O)NCC(=O)N1CC[C@H]2[C@H](CCC(=O)N2CCc2ccccc2)C1 | 5% | -1.02 |
| O=C(CCc1c[nH]cn1)NC[C@@H]1C[C@H]1C1CCCCC1 | 6% | -0.82 |
| COCCOCCN1CCCN(C)c2ccccc21 | -12% | 1.91 |
| Cc1nn(-c2nc(-c3ccc(F)cc3)cs2)c(C)c1CC(=O)Nc1ccc(Cl)cc1 | -7% | 0.77 |
| OCC1(CCCc2ccccc2)CCN(Cc2cccn2-c2nccs2)CC1 | -7% | 1.05 |
| CC[C@H](C)N(Cc1c(-c2ccccc2)noc1N1CCC(C)CC1)C(=O)c1cccc(Br)c1 | -10% | 0.95 |
| Cc1ccc([C@H](CCn2cncn2)NCCCn2ccnc2)cc1 | 12% | -1.64 |
| CCc1ccc(CNC(=O)c2ncn(C(C)(C)C)n2)s1 | -1% | 0.14 |
| COCCN1C(=O)CC[C@@H](C(=O)NCCc2c(C)nn(C)c2C)[C@H]1c1ccc(C)cc1 | -14% | 1.78 |
| CCc1noc(C)c1C(=O)Nc1cc(-c2ccc(=O)[nH]n2)ccc1C | 1% | -0.18 |
| OCCc1cnn(Cc2nnc(-c3cccs3)o2)c1 | -11% | 1.54 |
| CN(C)CCNC(=O)Nc1cc(Br)c(F)cc1F | -5% | 0.9 |
| COc1ccc(-c2noc(CN3CCC(C(=O)N4CCOCC4)CC3)n2)cc1OC | -1% | 0.24 |
| COc1cc(NC(=O)CC(F)(F)F)cc(OC)c1Br | -3% | 0.38 |
| CCc1cc(N2CCc3[nH]nc(C(=O)OC)c3C2)ncn1 | 1% | -0.07 |
| C#CCN(C(=O)[C@H]1CC(=O)N(c2ccc(F)c(F)c2)C1)C1CC1 | 6% | -0.8 |

| Compound | % Inhibition | Z score |
| --- | --- | --- |
| CN1C(=O)c2cc(C(F)(F)F)ccc2O[C@H]2CN(Cc3cc(-c4ccccc4)no3)C[C@H]21 | -8% | 1.31 |
| CCN(CC)CC#C[C@H](C)OC(=O)c1sc(-c2nnc[nH]2)nc1C | 4% | -0.71 |
| O=C(NCCc1nccs1)c1ccc2nc(-c3ccccc3)cn2c1 | -5% | 0.71 |
| O=C(Nc1ccc(-c2ccon2)cc1)N1CCC[C@@H]2COC[C@@H]21 | -4% | 0.63 |
| Cc1nccn1CCN(C)C(=O)c1cc(COc2ccc3c(c2)OCO3)[nH]n1 | -7% | 1.39 |
| CC(C)c1ccc(-c2nc(CN3CCCCC3)cc(CN3CCCCC3)c2O)cc1 | 96% | -15.06 |
| N#Cc1ccc(COc2ccc3c(c2)CCC3)cc1 | -8% | 1.1 |
| CC(C)Oc1ccc(C(=O)N[C@H]2CCS(=O)(=O)C(C)(C)C2)cc1 | 9% | -0.87 |
| O=C1NC[C@@]2(CCCN(C(=O)c3ccc(-c4ccco4)cc3)C2)O1 | -13% | 2.29 |
| O=C(CCn1cccn1)N1C[C@H]2CC[C@@H](C1)N(Cc1ccccn1)C2=O | -6% | 0.54 |
| O=C(C1C2CCCC21)N1CCCC(CO)C1 (stereo unspecified) | -4% | 0.46 |
| CC#CC(=O)N[C@H]1CCCc2sc(-c3ccc(F)cc3)nc21 | -33% | 4.65 |
| NC(=O)CO[C@H]1COCC[C@@H]1NC(=O)c1cccc(Cl)c1Cl | -8% | 1.02 |
| Cc1nc(-c2ccc(Cl)c(S(=O)(=O)N3CCC(C(=O)N4CCCCCC4)CC3)c2)no1 | 2% | -0.29 |
| CC(=O)Nc1c2n(c3ccccc13)C[C@@](C)(C(=O)NC1CCCC1)N(C1CCCCC1)C2=O | -20% | 1.89 |
| COc1ccc(CNCc2ccc(C)cc2)cc1Cn1ccnc1 | 44% | -7.64 |
| c1coc(C2=Nc3ccccc3NCC2)c1 | 1% | -0.22 |
| CC(C)(C)c1nccn1CCCn1ccnc1 | -1% | 0.16 |
| O=C(c1coc(COc2cccc(F)c2)n1)N1CCN(c2ccccn2)CC1 | -6% | 0.94 |
| COc1cccc(F)c1NC(=O)N1CCC(Cn2ccnn2)CC1 | -8% | 1.49 |
| Cc1cc(-c2ccc(S(=O)(=O)Nc3cccc(Cl)c3)o2)on1 | 2% | -0.31 |

| Compound | % Inhibition | Z score |
| --- | --- | --- |
| CS(=O)(=O)N1CC(C(=O)N2C3CCC2CC(CC(F)F)C3)C1 (stereo unspecified) | -9% | 1.09 |
| CC[C@@H](C(=O)NC1(c2cc(F)cc(F)c2)CC1)N1CCOCC1 | -8% | 1.17 |
| Cc1nc(C)c(NS(=O)(=O)c2ccc3c(c2)CCCC3)s1 | -8% | 0.94 |
| O=S1(=O)CC[C@H](NS(=O)(=O)c2cccc(C(F)(F)F)c2)c2cc(Cl)ccc21 | -4% | 0.52 |
| c1cc(OCc2ccc3c(c2)OCCO3)ccc1CNC[C@H]1CCCO1 | -8% | 0.71 |
| CC[C@H](NC(=O)C(C)C)C1=CCCN(Cc2ncccn2)C1 | -12% | 2.11 |
| NC(=O)c1c(NC(=O)CNC2CCCC2)sc2c1CCCC2 | -13% | 1.13 |
| COc1ccc(C)cc1S(=O)(=O)Nc1ccn2nccc2c1 | -7% | 1.08 |
| COc1cccc(C(=O)N2CCCN(c3nc4c(s3)c(C)nn4-c3ccc(C)cc3)CC2)c1OC | 6% | -1.01 |
| COc1ccc(OCc2cc(C(=O)NCc3n[nH]c(C)n3)n[nH]2)c(Cl)c1 | -4% | 0.87 |
| O=C(c1ccc[n+]([O-])c1)N1CCC[C@H](Cc2nc(C3CC3)no2)C1 | -9% | 1.59 |
| COCCNC(=O)Cc1cccc(N(Cc2ccc(C)cc2)C(=O)C2CCCC2)c1 | -9% | 0.87 |
| O=C(CCc1c[nH]c2ccccc12)OCc1nnsc1Cl | -15% | 2.84 |
| CC(C)CN(Cc1cccc(OS(=O)(=O)c2cccc(C(F)(F)F)c2)c1)C(=O)Nc1ccc(F)cc1F | -26% | 4.06 |
| Cc1nnc(NCCc2csc(-c3ccccc3)n2)[nH]c1=O | -15% | 2.06 |
| CC(C)c1nc([C@H]2CC[C@@H](O)CC2)n(-c2cccc3cccnc23)n1 | -4% | 0.49 |
| CC(C)(NC(=O)Nc1ccccc1F)c1c[nH]nn1 | -11% | 1.5 |
| O=C(O)[C@H]1CCCN1C(=O)CCc1ccncc1 | 11% | -1.32 |
| COc1ccc2[nH]c3c(c2c1)CCN(C)C31CCN(C(=O)c2cnccc2C)CC1 | -2% | 0.38 |
| Cc1nn(C)cc1[C@H](C)NC(=O)c1ccn(CCc2ccccc2)n1 | 1% | -0.13 |
